The supplement of paper PMC8728848
The other results are listed elsewhere or left out.

Tests used:
Test in all cases: glycan array binding signal (z-score within array); higher = stronger binding
Conditions in all cases: glycan notation: IUPAC condensed, linker removed
Gal(a1-3)Gal(b1-3)GlcNAc = biological target: Gal(a1-3)Gal(b1-3)GlcNAc
Procedure, shortened: (§1)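 Glycan array data were curated from 3228 arrays in the Consortium for Functional Glycomics database and kept only where the protein sequence was available. Glycan names were converted to IUPAC-condensed notation, and columns mapping to the same glycan were averaged. The binding signal is a within-array Z-score, averaged across arrays of the same protein sequence at different concentrations or buffers and across linkers. Negative Z-scores can be read as non-binding.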

[1] = biological target: Gal(a1-3)Gal(b1-3)GlcNAc(b1-2)Man
Procedure, shortened: as §1

[2] = biological target: Gal(a1-3)Gal(b1-3)GlcNAc(b1-2)Man(a1-3)[Gal(a1-3)Gal(b1-3)GlcNAc(b1-2)Man(a1-6)]Man(b1-4)GlcNAc(b1-4)GlcNAc
Procedure, shortened: as §1

[3] = biological target: Gal(a1-3)Gal(b1-3)GlcNAc(b1-3)GalNAc
Procedure, shortened: as §1

[4] = biological target: Gal(a1-3)Gal(b1-3)GlcNAc(b1-6)GalNAc
Procedure, shortened: as §1

[5] = biological target: Gal(a1-3)Gal(b1-3)[Fuc(a1-4)]GlcNAc(b1-2)Man(a1-3)[Gal(a1-3)Gal(b1-3)[Fuc(a1-4)]GlcNAc(b1-2)Man(a1-6)]Man(b1-4)GlcNAc(b1-4)GlcNAc
Procedure, shortened: as §1

Gal(a1-3)Gal(b1-4)Glc = biological target: Gal(a1-3)Gal(b1-4)Glc
Procedure, shortened: as §1

Gal(a1-3)Gal(b1-4)GlcNAc = biological target: Gal(a1-3)Gal(b1-4)GlcNAc
Procedure, shortened: as §1

[6] = biological target: Gal(a1-3)Gal(b1-4)GlcNAc(b1-2)Man
Procedure, shortened: as §1

[7] = biological target: Gal(a1-3)Gal(b1-4)GlcNAc(b1-2)Man(a1-3)[Gal(a1-3)Gal(b1-4)GlcNAc(b1-2)Man(a1-6)]Man(b1-4)GlcNAc(b1-4)GlcNAc
Procedure, shortened: as §1

[8] = biological target: Gal(a1-3)Gal(b1-4)GlcNAc(b1-3)GalNAc
Procedure, shortened: as §1

[9] = biological target: Gal(a1-3)Gal(b1-4)GlcNAc(b1-6)GalNAc
Procedure, shortened: as §1

[10] = biological target: Gal(a1-3)Gal(b1-4)[Fuc(a1-3)]GlcNAc
Procedure, shortened: as §1

[11] = biological target: Gal(a1-3)Gal(b1-4)[Fuc(a1-3)]GlcNAc(b1-2)Man(a1-3)[Gal(a1-3)Gal(b1-4)[Fuc(a1-3)]GlcNAc(b1-2)Man(a1-6)]Man(b1-4)GlcNAc(b1-4)GlcNAc
Procedure, shortened: as §1

Gal(a1-3)GalNAc = biological target: Gal(a1-3)GalNAc
Procedure, shortened: as §1

[12] = biological target: Gal(a1-3)[Gal(a1-4)]Gal(b1-4)GlcNAc
Procedure, shortened: as §1

[13] = biological target: Gal(a1-4)Gal(b1-3)GlcNAc(b1-2)Man(a1-3)[Gal(a1-4)Gal(b1-3)GlcNAc(b1-2)Man(a1-6)]Man(b1-4)GlcNAc(b1-4)GlcNAc
Procedure, shortened: as §1

Gal(a1-4)Gal(b1-4)Glc = biological target: Gal(a1-4)Gal(b1-4)Glc
Procedure, shortened: as §1

Gal(a1-4)Gal(b1-4)GlcNAc = biological target: Gal(a1-4)Gal(b1-4)GlcNAc
Procedure, shortened: as §1

[14] = biological target: Gal(a1-4)Gal(b1-4)GlcNAc(b1-2)Man(a1-3)[Gal(a1-4)Gal(b1-4)GlcNAc(b1-2)Man(a1-6)]Man(b1-4)GlcNAc(b1-4)GlcNAc
Procedure, shortened: as §1

[15] = biological target: Gal(a1-4)Gal(b1-4)GlcNAc(b1-3)Gal(b1-4)Glc
Procedure, shortened: as §1

Gal(a1-4)GlcNAc = biological target: Gal(a1-4)GlcNAc
Procedure, shortened: as §1

Gal(a1-6)Glc = biological target: Gal(a1-6)Glc
Procedure, shortened: as §1

Gal(b1-2)Gal = biological target: Gal(b1-2)Gal
Procedure, shortened: as §1

Gal(b1-3)Gal = biological target: Gal(b1-3)Gal
Procedure, shortened: as §1

Gal(b1-3)Gal(b1-4)GlcNAc = biological target: Gal(b1-3)Gal(b1-4)GlcNAc
Procedure, shortened: as §1

Gal(b1-3)GalNAc = biological target: Gal(b1-3)GalNAc
Procedure, shortened: as §1

[16] = biological target: Gal(b1-3)GalNAc(a1-3)[Fuc(a1-2)]Gal(b1-4)Glc
Procedure, shortened: as §1

[17] = biological target: Gal(b1-3)GalNAc(a1-3)[Fuc(a1-2)]Gal(b1-4)GlcNAc
Procedure, shortened: as §1

Gal(b1-3)GalNAc(b1-3)Gal = biological target: Gal(b1-3)GalNAc(b1-3)Gal
Procedure, shortened: as §1

[18] = biological target: Gal(b1-3)GalNAc(b1-3)Gal(a1-4)Gal(b1-4)Glc
Procedure, shortened: as §1

[19] = biological target: Gal(b1-3)GalNAc(b1-4)Gal(b1-4)Glc
Procedure, shortened: as §1

[20] = biological target: Gal(b1-3)GalNAc(b1-4)[Neu5Ac(a2-3)]Gal(b1-4)Glc
Procedure, shortened: as §1

Gal(b1-3)GlcNAc = biological target: Gal(b1-3)GlcNAc
Procedure, shortened: as §1

[21] = biological target: Gal(b1-3)GlcNAc(a1-3)Gal(b1-4)GlcNAc
Procedure, shortened: as §1

[22] = biological target: Gal(b1-3)GlcNAc(a1-6)Gal(b1-4)GlcNAc
Procedure, shortened: as §1

Gal(b1-3)GlcNAc(b1-2)Man = biological target: Gal(b1-3)GlcNAc(b1-2)Man
Procedure, shortened: as §1

[23] = biological target: Gal(b1-3)GlcNAc(b1-2)Man(a1-3)[Gal(b1-3)GlcNAc(b1-2)Man(a1-6)]Man(b1-4)GlcNAc(b1-4)GlcNAc
Procedure, shortened: as §1

B1: Na-CTL-1 (Necator americanus) (protein)
chain: MQRSFLLLLVVLAGAWAVNTTIPLKLMGGFTPMKYQCVGRVSDIWADVLFLIESSDMITKSGFRQVIAFITATTKKMTIGQDEKQTRVGFITYGEEAKLIYDLDHWRSTEKLSDLVQKIPYVKSSGTNIAAAIALANKVFNSPTHRPNVPKVMVIVANGLKKGSQNPIPVATAFKDFGGIIITIEYTQYDNIQVPILKKIASEGYNIRSNDEDFSVRTLTNMLLQANCFCPDHYVPFRVNNPEFGCFVTAKIPSMWRDAAEMCRAVEEGKLVKVENEEKAAFIMKLVGPKKEAWIGLRYYGNKFQWTDGTKLNADDFNLWPEDIKELNGPHCVSMYQDQKDKKYYWRAGKCLEDMRYVCEVQPCSASNYCSEPVFMYRQKHRALLPAPPPPPN
glycan array binding signal (z-score) (Gal(a1-3)Gal(b1-3)GlcNAc): 0.073
glycan array binding signal (z-score) [1]: 0.192
glycan array binding signal (z-score) [2]: -0.139
glycan array binding signal (z-score) [3]: -0.222
glycan array binding signal (z-score) [4]: -0.267
glycan array binding signal (z-score) [5]: -0.137
glycan array binding signal (z-score) (Gal(a1-3)Gal(b1-4)Glc): 1.29
glycan array binding signal (z-score) (Gal(a1-3)Gal(b1-4)GlcNAc): -0.05
glycan array binding signal (z-score) [6]: -0.51
glycan array binding signal (z-score) [7]: 0.692
glycan array binding signal (z-score) [8]: -0.272
glycan array binding signal (z-score) [9]: 0.049
glycan array binding signal (z-score) [10]: -0.132
glycan array binding signal (z-score) [11]: -0.248
glycan array binding signal (z-score) (Gal(a1-3)GalNAc): 0.042
glycan array binding signal (z-score) [12]: 1.4
glycan array binding signal (z-score) [13]: -0.549
glycan array binding signal (z-score) (Gal(a1-4)Gal(b1-4)Glc): 0.048
glycan array binding signal (z-score) (Gal(a1-4)Gal(b1-4)GlcNAc): 0.656
glycan array binding signal (z-score) [14]: 0.562
glycan array binding signal (z-score) [15]: -0.215
glycan array binding signal (z-score) (Gal(a1-4)GlcNAc): -0.289
glycan array binding signal (z-score) (Gal(a1-6)Glc): -0.265
glycan array binding signal (z-score) (Gal(b1-2)Gal): -0.582
glycan array binding signal (z-score) (Gal(b1-3)Gal): -0.126
glycan array binding signal (z-score) (Gal(b1-3)Gal(b1-4)GlcNAc): 0.592
glycan array binding signal (z-score) (Gal(b1-3)GalNAc): -0.022
glycan array binding signal (z-score) [16]: -0.415
glycan array binding signal (z-score) [17]: -0.408
glycan array binding signal (z-score) (Gal(b1-3)GalNAc(b1-3)Gal): -0.36
glycan array binding signal (z-score) [18]: -0.55
glycan array binding signal (z-score) [19]: -0.243
glycan array binding signal (z-score) [20]: -0.244
glycan array binding signal (z-score) (Gal(b1-3)GlcNAc): -0.455
glycan array binding signal (z-score) [21]: -0.359
glycan array binding signal (z-score) [22]: 0.138
glycan array binding signal (z-score) (Gal(b1-3)GlcNAc(b1-2)Man): -0.258
glycan array binding signal (z-score) [23]: -0.287
